Measurements from PubChem BioAssay (NCI).
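Tested at 5 concentrations; 48 h exposure; 96-well plates; endpoints linearly interpolated, else capped at highest concentration. TGI marks complete inhibition of growth.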

System: NCI-H322M lung
Test: NCI anticancer screen, dose series, 48 h

For `COC(=O)CC1C(C)(C)C(=O)C2CC3=C4CC(=O)OC(c5ccoc5)C4(C)CCC3C1(C)C2=O` (stereo unspecified), the TGI was over 100 µM.
